About 220 (0.56%) of roughly 39,000 compounds showed activity. The list shows a part of the results.
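Further: static incubation at 37 °C against the wild-type strain, values averaged over two biological replicates.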

The assay has as its system Escherichia coli K-12 BW25113. Kind of assay: relative growth (OD600 normalised to plate interquartile mean) (fraction); higher = less growth inhibition, active = 0.2 or less. The note with it: 50 µM; LB; incubation time: overnight (16-24 h).
Turning to `COc1ccc(NC(=O)N(C)C[C@@H]2Oc3c(NC(=O)C4CC4)cccc3C(=O)N([C@@H](C)CO)C[C@H]2C)cc1`, the relative growth is inactive: 0.963.

As for `C[C@@H]1CN([C@@H](C)CO)C(=O)Cc2cc(NC(=O)c3ccncc3)ccc2O[C@@H]1CN(C)S(C)(=O)=O`, the relative growth is inactive: 1.02.

For `C[C@@H]1CN([C@@H](C)CO)C(=O)c2cc(NC(=O)c3ccncc3)ccc2O[C@@H]1CN(C)Cc1ccc(-c2ccccc2)cc1`, the relative growth was inactive: 0.895.

In the case of `COc1ccc(CN(C)C[C@H]2OCCCC[C@H](C)Oc3ccc(NC(=O)Nc4cccc5ccccc45)cc3C(=O)N([C@H](C)CO)C[C@H]2C)cc1`, the relative growth is inactive: 1.06.

As for `C[C@H](CO)N1C[C@H](C)[C@@H](CN(C)Cc2ccc(Cl)c(Cl)c2)Oc2ccc(NS(=O)(=O)c3ccc(F)cc3)cc2C1=O`, the relative growth was inactive: 1.01.

With `C/C=C/C1=C(C(=O)O)N2C(=O)[C@@H](NC(=O)[C@H](N)c3ccc(O)cc3)[C@H]2SC1`, the relative growth is inactive: 0.876.

Regarding `C[C@@H]1CN([C@@H](C)CO)C(=O)Cc2cc(NC(=O)Nc3ccc4c(c3)OCO4)ccc2O[C@@H]1CN(C)S(C)(=O)=O`, the relative growth is inactive: 0.742.

For `Clc1cccn2nnnc12`, the relative growth is inactive: 1.

As to `Cc1noc(C)c1S(=O)(=O)Nc1ccc2c(c1)CC(=O)N([C@@H](C)CO)C[C@@H](C)[C@@H](CN(C)C(=O)NC(C)C)O2`, the relative growth was inactive: 1.

Take `C[C@H]1CN([C@@H](C)CO)C(=O)c2cccc(NC(=O)Nc3ccc(C(F)(F)F)cc3)c2O[C@H]1CN(C)C(=O)Nc1ccc(F)cc1`: the relative growth is inactive: 0.913.

Consider `NC(=O)[C@H]1CSCCC(=O)N1`, for which the relative growth is inactive: 0.977.

With `CNC(=O)c1c(F)cccc1Nc1nc(Nc2cc3c(cc2OC)CCN3C(=O)CN(C)C)nc2[nH]ccc12`, the relative growth is inactive: 0.996.

For `COCCCNC(=O)[C@@]1(CCS(=O)(=O)c2ccccc2)COC(c2ccc(OCCCO)cc2)=N1`, the relative growth is inactive: 1.01.

Turning to `CC(C)(C)OC(=O)C[C@@H]1CC=CC[C@@H](CC(=O)N[C@@H](CO)Cc2ccccc2)C(=O)N[C@@H](C(C)(C)C)COC1=O`, the relative growth is inactive: 1.

Regarding `CO[C@@H]1CN(C)C(=O)c2cc(NC(=O)CC(F)(F)F)ccc2OC[C@@H](C)N(C(=O)C2CCOCC2)C[C@@H]1C`, the relative growth was inactive: 1.02.

For `CC(C)CNC(=O)CSc1nnc[nH]1`, the relative growth is inactive: 0.976.

With `C[C@H](CO)N1C[C@H](C)[C@H](CN(C)C(=O)Nc2ccc(C(F)(F)F)cc2)Oc2ccc(NC(=O)Cc3cn(C)c4ccccc34)cc2C1=O`, the relative growth is inactive: 1.01.

As to `C[C@@H]1CN([C@@H](C)CO)C(=O)c2cc(C#CCc3ccccc3)cnc2O[C@H]1CN(C)CC1CCOCC1`, the relative growth is inactive: 0.99.

On to `COc1ccc(S(=O)(=O)Nc2ccc3c(c2)CC(=O)N([C@H](C)CO)C[C@@H](C)[C@H](CN(C)CC2CC2)O3)cc1`, for which the relative growth was inactive: 0.976.

For the compound `COc1ccc(NC(=O)Nc2ccc3c(c2)C(=O)N([C@@H](C)CO)C[C@H](C)[C@@H](CN(C)S(=O)(=O)c2ccccc2)OCCCC[C@H](C)O3)cc1`, the relative growth is inactive: 1.02.

Regarding `Nc1ccn([C@H]2CC[C@@H](CO)O2)c(=O)n1`, the relative growth is inactive: 0.974.

On to `O=C(NCCCn1ccnc1)C(=O)NC[C@H]1OCCN1S(=O)(=O)c1ccc(F)cc1`, for which the relative growth is inactive: 1.01.

As to `CN1CCN(C(=O)C[C@@H]2CC[C@@H]3[C@H](COC[C@H](O)CN3Cc3ccc(Oc4ccccc4)cc3)O2)CC1`, the relative growth was inactive: 0.995.

`COc1ccc(S(=O)(=O)Nc2ccc3c(c2)C(=O)N([C@@H](C)CO)C[C@@H](C)[C@@H](CN(C)C(=O)CCC(F)(F)F)OCCCC[C@H](C)O3)cc1`: the relative growth was inactive: 0.972.

As for `Cn1cnc(S(=O)(=O)N2C[C@@H](O)COC[C@H]3O[C@H](CC(=O)NC4CCCC4)CC[C@@H]32)c1`, the relative growth is inactive: 1.02.

With `C[C@@H]1CN([C@@H](C)CO)C(=O)Cc2cc(NC(=O)Cc3cn(C)c4ccccc34)ccc2O[C@H]1CN(C)Cc1ccc(Cl)c(Cl)c1`, the relative growth is inactive: 0.968.

With `O=c1nc[nH]c2c1ncn2[C@@H]1C[C@@H](O)[C@H](CO)O1`, the relative growth is inactive: 0.998.

`C[C@H](CO)N1C[C@H](C)[C@@H](CN(C)Cc2ccccn2)Oc2cc(C#CCN(C)C)ccc2S1(=O)=O`: the relative growth was inactive: 0.991.

Regarding `COc1ccc(-c2cnc3c(c2)C(=O)N([C@@H](C)CO)C[C@H](C)[C@H](CN(C)C(=O)Cc2ccncc2)O3)cc1`, the relative growth is inactive: 0.988.

As for `CN(C)C(=O)C[C@H]1CC[C@H]2[C@@H](COC[C@H](O)CN2S(=O)(=O)c2ccccc2)O1`, the relative growth was inactive: 0.997.

On to `C[C@H]1CN([C@@H](C)CO)C(=O)Cc2cc(NC(=O)CCC(F)(F)F)ccc2O[C@H]1CN(C)Cc1ccc(Cl)c(Cl)c1`, for which the relative growth is inactive: 1.01.

For the compound `O=C(CN1CCOCC1)N[C@@H]1CC[C@H](CCNC(=O)C2CCC2)O[C@H]1CO`, the relative growth is inactive: 0.992.

With `COc1ccc(CN(C)C[C@@H]2Oc3ccc(NC(=O)CCN4CCOCC4)cc3CC(=O)N([C@@H](C)CO)C[C@H]2C)cc1`, the relative growth is inactive: 0.988.

In the case of `C[C@H]1CCCCO[C@H](CN(C)Cc2ccncc2)[C@@H](C)CN([C@@H](C)CO)C(=O)c2cc(NC(=O)Nc3ccc(F)cc3)ccc2O1`, the relative growth was inactive: 0.988.

Turning to `Cc1nc(Cn2cnc3c2c(=O)n(C)c(=O)n3C)no1`, the relative growth is inactive: 1.01.

Turning to `C[C@H]1CN([C@@H](C)CO)C(=O)c2cc(NC(=O)Nc3cccc4ccccc34)ccc2O[C@H]1CN(C)Cc1ccc2c(c1)OCO2`, the relative growth is inactive: 1.02.

As to `CN(C)C(=O)C[C@H]1C=C[C@@H](NC(=O)C2CC2)[C@@H](CO)O1`, the relative growth was inactive: 0.991.

As for `Clc1ccc(/C=N/Cc2ccc(-c3cccs3)s2)cc1`, the relative growth is inactive: 0.97.

Regarding `COc1c(-c2ccccc2)oc2cc(O)cc(O)c2c1=O`, the relative growth is inactive: 0.998.

Turning to `CC(C)C[C@H](NC(=O)[C@H](CCc1ccccc1)NC(=O)CN1CCOCC1)C(=O)N[C@@H](Cc1ccccc1)C(=O)N[C@@H](CC(C)C)C(=O)[C@@]1(C)CO1`, the relative growth is inactive: 1.13.

Take `COCC(=O)Nc1ccc2c(c1)CC(=O)N2`: the relative growth is inactive: 0.985.

`C[C@H](CO)N1C[C@H](C)[C@@H](CN(C)S(=O)(=O)c2cccs2)OCCCC[C@H](C)Oc2ccc(NC(=O)Nc3ccc(C(F)(F)F)cc3)cc2C1=O`: the relative growth is inactive: 1.02.

`COc1ccc(C#Cc2ccc3c(c2)[C@]2(C(=O)N3)[C@H](C(=O)N3CCCCCCC3)[C@H]3C(=O)O[C@H](c4ccccc4)[C@H](c4ccccc4)N3[C@@H]2c2ccc(O)cc2)cc1`: the relative growth was inactive: 1.02.

`Cc1noc(C)c1NC(=O)N(C)C[C@@H]1Oc2c(NS(=O)(=O)c3cn(C)cn3)cccc2C(=O)N([C@H](C)CO)C[C@H]1C`: the relative growth was inactive: 0.986.

`COc1ccc(NC(=O)Nc2ccc3c(c2)C(=O)N([C@@H](C)CO)C[C@H](C)[C@@H](CN(C)C(=O)Nc2ccc4c(c2)OCO4)OCCCC[C@H](C)O3)cc1`: the relative growth was inactive: 1.04.

Turning to `COc1ccc(S(=O)(=O)N(C)C[C@H]2Oc3c(NC(=O)C4CCOCC4)cccc3C(=O)N([C@H](C)CO)C[C@@H]2C)cc1`, the relative growth was inactive: 1.01.

For `C[C@@H]1CN([C@@H](C)CO)C(=O)Cc2cc(NC(=O)Nc3ccc4c(c3)OCO4)ccc2O[C@H]1CN(C)S(C)(=O)=O`, the relative growth was inactive: 0.979.

Turning to `C/C(=C\CC[C@@H](C)[C@H]1C[C@@H](O)[C@@]2(C)[C@H]3CC[C@H]4C(C)(C)[C@@H](O[C@@H]5O[C@@H](CO[C@H]6OC[C@@H](O)[C@@H](O)[C@@H]6O)[C@@H](O)[C@@H](O)[C@@H]5O)CC[C@@]45C[C@@]35C[C@@H](O)[C@]12C)C(=O)O[C@H]1O[C@@H](CO)[C@@H](O)[C@@H](O)[C@@H]1O`, the relative growth is inactive: 1.04.

For the compound `C[C@@H]1CN([C@@H](C)CO)C(=O)Cc2cc(NC(=O)CCC(F)(F)F)ccc2O[C@@H]1CN(C)Cc1ccc(-c2ccccc2)cc1`, the relative growth was inactive: 0.945.

For `OC[C@H]1CC[C@@H]2O[C@H](CCc3ccc(C#CCc4ccccc4)cc3)[C@@H](n3cc(-c4ccccc4)nn3)C[C@@H]2O1`, the relative growth was inactive: 1.02.

Regarding `Nc1ccc(S(=O)(=O)[O-])cc1.Nc1ccc(S(=O)(=O)[O-])cc1.[Zn+2]`, the relative growth was inactive: 1.03.

For the compound `CC(C)NC(=O)N(C)C[C@H]1Oc2ccc(NS(=O)(=O)c3ccc(Cl)cc3)cc2CC(=O)N([C@@H](C)CO)C[C@H]1C`, the relative growth is inactive: 0.988.

As to `C[C@@H]1CN([C@H](C)CO)C(=O)c2cccc(NC(=O)C3CCOCC3)c2O[C@H]1CN(C)S(=O)(=O)c1cn(C)cn1`, the relative growth was inactive: 0.994.

As for `Cc1noc(C)c1S(=O)(=O)Nc1cccc2c1O[C@H](CN(C)Cc1ccc(C(=O)O)cc1)[C@H](C)CN([C@@H](C)CO)C2=O`, the relative growth is inactive: 0.911.

Turning to `COc1ccc(CN(C)C[C@H]2OCCCC[C@H](C)Oc3ccc(NC(=O)Nc4c(C)noc4C)cc3C(=O)N([C@@H](C)CO)C[C@@H]2C)cc1`, the relative growth is inactive: 0.992.

Consider `Cc1ccccc1S(=O)(=O)N1C[C@@H](O)COC[C@H]2O[C@H](CC(=O)N3CCC(Cc4ccccc4)CC3)CC[C@@H]21`, for which the relative growth was inactive: 1.02.

`C[C@H]1CN([C@@H](C)CO)C(=O)Cc2cc(NC(=O)C3CC3)ccc2O[C@H]1CN(C)S(=O)(=O)c1cn(C)cn1`: the relative growth was inactive: 1.02.

With `CCc1c(C)[nH]c2ncnn2c1=O`, the relative growth was inactive: 0.965.

On to `Cc1ccc(S(=O)(=O)N[C@H]2CC[C@H](CC(=O)N3CCC(Cc4ccccc4)CC3)O[C@@H]2CO)cc1`, for which the relative growth was inactive: 1.03.

With `CCCC(=O)Nc1ccc(OCC(O)CNC(C)C)c(C(C)=O)c1.Cl` (stereo unspecified), the relative growth is inactive: 1.07.

For `COc1ccc(S(=O)(=O)N(C)C[C@H]2Oc3ccc(NS(=O)(=O)c4c(C)noc4C)cc3C(=O)N([C@H](C)CO)C[C@@H]2C)cc1`, the relative growth is inactive: 1.

The record behind these values is the supplement of paper PMC9446081.
